Assay results from the supplement of paper PMC3334620.
The full ranking holds about 33,000 sequences; the median of “E-score (-0.5 to 0.5)” is about -0.043, and the highest 2% start at about 0.37. The list shows a part of the results.

Biological target: T1, Upc2 (UniProt Q12151)
T1 sequence: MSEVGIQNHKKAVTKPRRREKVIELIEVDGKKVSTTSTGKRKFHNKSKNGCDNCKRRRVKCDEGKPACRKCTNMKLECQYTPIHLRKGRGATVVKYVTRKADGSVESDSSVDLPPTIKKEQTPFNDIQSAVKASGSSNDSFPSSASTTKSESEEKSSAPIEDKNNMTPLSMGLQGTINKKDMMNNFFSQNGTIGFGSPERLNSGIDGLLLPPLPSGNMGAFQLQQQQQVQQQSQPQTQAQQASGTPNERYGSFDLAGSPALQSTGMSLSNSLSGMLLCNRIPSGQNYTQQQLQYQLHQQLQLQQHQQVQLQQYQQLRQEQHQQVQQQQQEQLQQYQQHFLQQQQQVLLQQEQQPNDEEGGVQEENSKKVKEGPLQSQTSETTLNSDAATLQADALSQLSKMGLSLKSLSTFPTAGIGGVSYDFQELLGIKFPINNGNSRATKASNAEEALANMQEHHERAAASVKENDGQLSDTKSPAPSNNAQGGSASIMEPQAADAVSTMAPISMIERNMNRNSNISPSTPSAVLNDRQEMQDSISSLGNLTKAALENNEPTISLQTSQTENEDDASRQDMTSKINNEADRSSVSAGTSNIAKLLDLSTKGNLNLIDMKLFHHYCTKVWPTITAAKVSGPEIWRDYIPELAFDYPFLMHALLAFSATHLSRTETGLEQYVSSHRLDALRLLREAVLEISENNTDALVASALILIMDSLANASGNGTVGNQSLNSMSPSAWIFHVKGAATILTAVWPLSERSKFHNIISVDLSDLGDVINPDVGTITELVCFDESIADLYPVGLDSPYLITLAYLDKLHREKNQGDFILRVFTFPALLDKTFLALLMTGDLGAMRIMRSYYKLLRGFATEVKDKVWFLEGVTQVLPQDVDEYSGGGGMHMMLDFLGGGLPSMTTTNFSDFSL
Experiment: PBM E-score (8-mer binding enrichment) (E-score (-0.5 to 0.5)); higher = stronger / more preferred TF binding; most listed sequences are background and not binding sites
Conditions: protein concentration: 200 nM; construct: GST-full length
Outline: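 Using PURExpress in vitro transcription/translation, GST-tagged yeast transcription factors were made in full-length or DNA-binding-domain form. These were applied at about 100-200 nM to double-stranded universal all-10-mer Agilent arrays, and bound protein was detected with fluorescent anti-GST. Scans were normalised with masliner before the Universal PBM Analysis Suite assigned E-scores to ungapped eight-base words pooled with their reverse complements.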

In order of rising “PBM E-score” value:
1. AGGGACTG  -0.415
2. AAGCCGGC  -0.385
3. CATCCAGG  -0.381
4. ATGACTCC  -0.331
5. CCAAGGTC  -0.318
6. CCCCCCGG  -0.291
7. AACCTTAT  -0.285
8. ATCAGATC  -0.278
9. CCAAGCGG  -0.271
10. AGTCCACT  -0.27
11. CAATGGAG  -0.254
12. CCTGGAGA  -0.251
13. AGGCTTAT  -0.251
14. CTACCGCC  -0.244
15. AGAAACCC  -0.239
16. CCCTGGGA  -0.225
17. GCAAGTCC  -0.216
18. CTAGCCGC  -0.214
19. CGTGGTAG  -0.212
20. CTCTCCTC  -0.201
21. GGTAGGAA  -0.196
22. AGACCAAG  -0.187
23. TGGAGGAA  -0.185
24. AGCTCAGG  -0.183
25. GTCTTAGA  -0.179
26. CTGTTGCC  -0.178
27. AAAGGGGG  -0.177
28. CGGTGGAC  -0.175
29. ACCTGATA  -0.173
30. ATTCCTCC  -0.173
31. CAACTACA  -0.172
32. AGGCATCC  -0.168
33. CCAGTCAA  -0.167
34. AGATAGGG  -0.167
35. CCAACAGG  -0.162
36. GCAAAAGA  -0.161
37. CCCTGAAG  -0.16
38. AAAGGGAT  -0.154
39. CCCTGTGA  -0.153
40. CTTAGTGA  -0.151
41. CATGTGGC  -0.146
42. GGCCACCA  -0.136
43. GCATAGCC  -0.135
44. ATTACCAA  -0.131
45. CCAGTCCG  -0.13
46. CTGTGAAG  -0.129
47. CACTATAA  -0.126
48. GCCAGCCA  -0.126
49. TCTAAAGA  -0.125
50. CCTTAGCC  -0.122
51. AAGCGGTC  -0.121
52. ATCCAGTC  -0.12
53. AATAATGA  -0.119
54. GACTTTTA  -0.119
55. AGAGCAAG  -0.118
56. AGAGATCC  -0.111
57. GTGACCTA  -0.106
58. CCTCCTCC  -0.105
59. GCTGCTAA  -0.105
60. AAAAGTCC  -0.104
61. AGAAAGCC  -0.103
62. AAGGCTAT  -0.103
63. CGTCCATA  -0.095
64. CTGTTCGA  -0.0926
65. CAGCTGGG  -0.0854
66. ACCCGCGG  -0.084
67. ATAGCCCG  -0.0824
68. GACATGGA  -0.0806
69. AGTTTTGG  -0.0774
70. GGTTAATA  -0.0728
71. AGATCACA  -0.0727
72. TGCACGCA  -0.071
73. AGTCACCG  -0.0692
74. GAAAATGA  -0.0662
75. GGTACCCA  -0.0644
76. AAGAAGGT  -0.0621
77. AGCAATTG  -0.0614
78. CCGCTACA  -0.0599
79. AAGTGATT  -0.0562
80. ATAGACCG  -0.0557
81. GCGGTACA  -0.0545
82. ATGTACCA  -0.0534
83. ATAGCCTA  -0.0517
84. AGGCAGAA  -0.0504
85. CAAGAAAA  -0.0476
86. ATAACGGA  -0.042
87. GGAACCAC  -0.0411
88. ACAACCCC  -0.0395
89. CTCGGGCA  -0.0343
90. GTGGCTAA  -0.0315
91. GATCGATC  -0.03
92. GGTACTAA  -0.0237
93. AGCAGCCA  -0.0202
94. GGGTGAAC  -0.0188
95. GCTTACAA  -0.0171
96. TAATGTAA  -0.0142
97. ATCAAACC  -0.0118
98. GATGTGAC  -0.0117
99. ATATACTC  -0.0113
100. AACATGCC  -0.00673
101. CTGCCGTC  -0.00574
102. CGCTGATC  -0.00472
103. AGCACACT  -0.00256
104. AGACTACC  0.00168
105. AAGTCATC  0.00224
106. CGTGCAAC  0.00465
107. CCCGAAAG  0.00835
108. GAAATCCA  0.0117
109. CAATTGTA  0.0121
110. CGATTCTA  0.0126
111. ACTACAAT  0.0165
112. ATCAAAAT  0.019
113. ATTGCAAG  0.0216
114. GTGTTTAA  0.0238
115. AAGAACGG  0.0306
116. GACTTGAA  0.0308
117. AAGGGCCG  0.0321
118. AGCCTCGA  0.036
119. CCTGTTAC  0.0437
120. ATTTCCCA  0.0444
121. AATAGATC  0.0449
122. GCGGTCTA  0.048
123. GAATGCAA  0.0555
124. TACCCGCA  0.0567
125. TTGACAAA  0.0582
126. CACTCGAG  0.0587
127. AATACTAA  0.0618
128. CGATAAGC  0.0703
129. AATACAGG  0.0724
130. CTGCCAAA  0.077
131. GGTTCATA  0.0774
132. GGCGCGCC  0.0859
133. AGAAGGCC  0.0878
134. ATAACACG  0.089
135. CGAGCCGA  0.0905
136. ACTCCGGA  0.0907
137. GGAAGTTA  0.092
138. CGATCTAC  0.0957
139. CGAACAGC  0.101
140. AACAGATC  0.107
141. CCTTGTAC  0.119
142. ACGGGCAC  0.124
143. AGACCATA  0.134
144. CCATTATC  0.136
145. GTTGCTAA  0.137
146. GATGGTAC  0.139
147. AAATCCGA  0.14
148. GCGGTATA  0.151
149. ACGCAGCT  0.156
150. ACACGAGT  0.162
151. ACCGGTAC  0.164
152. CGTGGATA  0.169
153. ACGTTCAG  0.17
154. CCCCATAC  0.174
155. CGCGAGGC  0.177
156. CCACTTAC  0.187
157. AATCAAAC  0.188
158. CTTCGCTC  0.208
159. AACGTTCA  0.212
160. CGGAATTA  0.216
161. ACAATCGT  0.221
162. ACGATCCC  0.231
163. CGTTCTAC  0.264
164. ATGCGAAT  0.27
165. AACGGATA  0.274
166. CTAACGAA  0.287
167. CCCGTTCA  0.291
168. ACGATTAG  0.303
169. ATACGCGG  0.354
170. CTATATAC  0.358
171. AACGAGTA  0.437
172. AGCGTATA  0.444
